Experimental data from PubChem BioAssay AID662 (National Center for Advancing Translational Sciences (NCATS), 2007).
In all, about 71,000 compounds went through this assay and about 1,800 (2.5%) were called active. This list was built around the results that the source calls inconclusive (neither active nor inactive); the mix of calls is not that of the screen. Calls come from the whole dose curve; as a rule, active = well fitted activation curve with a large enough effect in the signal ratio, with a control signal flat (not every such curve was filed as active); inconclusive = small, poorly fitted or top-dose-only effect, or effect the other way, or a change in a side signal; inactive = flat fitted curve, though single readings scatter; the % refers to the signal ratio. Where the call is inconclusive, the potency comes from a doubtful curve fit.

test: Cell signaling CRE-BLA (Fsk stim); conditions: CHO CRE-bla reporter (cAMP response element driving beta-lactamase), forskolin EC10, beta-lactamase ratio; activity change, negative = inhibition: at 38.2 µM (top of the series) unless noted; for activity change, negative = inhibition: % of control where 0% means no effect
Summary of the method: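 AC50 values, positive or negative, reflect shifts in EC10 NKH 477-induced CRE-bla reporter activity in CHO cells. Incubation lasted 3 h at 37 °C before CCF4 substrate (2 h, room temperature) and ratiometric 460/530 nm reading.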
Potency is the fitted concentration of half-maximal effect; tags give direction and shape of the fitted curve.

| SMILES | activity change, negative = inhibition | Potency |
| --- | --- | --- |
| Cc1nc(NC(=O)c2ccc(Br)s2)sc1C(=O)N(C)C | inconclusive: 24.5% | – |
| COc1ccc(OC)c(C(=O)c2ccc(C(=O)N3CCCCC3)cc2)c1 | inactive: 10.4% | – |
| CCN(C(=O)c1ccc(C(C)(C)C)cc1)c1nnc(Cn2nnc3ccccc32)s1 | inactive: -9.81% | – |
| CCC(C(=O)Nc1cc(C)nn1-c1nc(C)cc(C)n1)c1ccccc1 (centres undefined) | – | active: 12.6 µM |
| O=C(O)c1ccccc1C(=O)N1CCN(c2cccc(Cl)c2)CC1 | inactive: -17% | – |
| COc1ccc(S(=O)(=O)NCCCN2CCOCC2)c2ccccc12 | inconclusive: -8.81% | – |
| CCCCc1ccc(-c2nc(-c3ccncc3)no2)cc1 | – | inconclusive: 5.01 µM [rising, single point] |
| CNC(=O)C1CC(=O)N(c2ccc(C)cc2)C1 (centres undefined) | inactive: 4.98% | – |
| Cn1c(=NC(=O)CSCC(=O)N2CCCC2)sc2ccccc21 | – | inconclusive: 12.6 µM [rising, partial curve] |
| COC(=O)c1c(S(N)(=O)=O)c2ccccc2n1C | inactive: -3.99% | – |
| Cc1cccn2c(=O)c3cc(C(=O)NCc4cccnc4)c(=N)n(C(C)C)c3nc12 | – | active: 12.6 µM |
| CCN(c1cccc(C(F)(F)F)c1)S(=O)(=O)c1ccc2c(c1)CCN2C(=O)C1CC1 | – | inconclusive: 6.31 µM [rising, partial curve] |
| CCN(CC)CCCN1C(=O)c2oc3ccccc3c(=O)c2C1c1cc(OC)ccc1OC (centres undefined) | – | inconclusive: 15.8 µM [falling, partial curve] |
| O=C(CN1C(=O)c2ccccc2C1=O)Nc1cccnc1 | – | inconclusive: 5.01 µM [falling, single point] |
| O=S(=O)(Nc1ccc(S(=O)(=O)N2CCCCC2)cc1)c1cccs1 | inactive: 0.0462% | – |
| Cc1ccc2nc(NC(=O)C3CCN(S(=O)(=O)c4cccc5nsnc45)CC3)sc2c1 | inconclusive: -3.24% | – |
| O=C(OCC(=O)N1CCN(C(=O)c2ccco2)CC1)c1sc2cc(F)ccc2c1Cl | – | inconclusive: 5.01 µM [falling, single point] |
| CCC/C=C(\CCC)C(NC(=O)c1cccs1)c1ccc(C(=O)OC)cc1 (centres undefined) | inactive: 15.8% | – |
| O=C(NCc1cccnc1)c1cccc2c1C(=O)N(C1CCCCC1)C2 | inconclusive: 23.3% | – |
| COC(=O)c1ccc(CSc2nc(C)nc3c2c(=O)n(C)c(=O)n3C)o1 | – | active: 2 µM |
| CCOC(=O)c1ccc(NC2c3ncccc3C(=O)N2Cc2ccc(F)cc2)cc1 (centres undefined) | inconclusive: -13.5% | – |
| Cc1occc1C(=O)Nc1ccc2c(c1)OCO2 | inconclusive: 26.6% | – |
| OC(CNC1CCCCC1)CN1CCN(CC(O)CNC2CCCCC2)CC1 (centres undefined) | inactive: -0.176% | – |
| COc1cccc2cc(C(C)N(CCCN3CCOCC3)C(=O)Nc3ccc(Cl)cc3)oc12 (centres undefined) | – | inconclusive: 10 µM [falling, partial curve] |
| COc1ccc(-n2c(=O)c3ccccc3n(CC(=O)Nc3cc(C)on3)c2=O)cc1OC | inconclusive: 9.23% | – |
| CC(=O)N1CCc2cc(S(=O)(=O)Nc3cccc(C(F)(F)F)c3)ccc21 | inconclusive: -12.1% | – |
| Cc1ccc(C)c(C(=O)CSc2n[nH]c(-c3ccncc3)n2)c1 | – | inconclusive: 10 µM [rising, partial curve] |

| SMILES | activity change, negative = inhibition | Potency |
| --- | --- | --- |
| Cc1ccc(-n2c(CSc3nc(C)cc(C)n3)nnc2SCC(=O)NCc2ccco2)cc1 | inconclusive: 18.9% | – |
| N#Cc1c(-c2cccs2)cc(-c2cccnc2)nc1N | – | active: 3.98 µM |
| O=C(C1Cc2ccccc2CN1S(=O)(=O)c1ccc(F)cc1)N1CCCCCC1 (centres undefined) | inactive: 2.3% | – |
| COc1nc(Nc2ccc3c(c2)OCO3)nc(OC)n1 | inconclusive: 21.8% | – |
| CC1(C)Cc2c(C#N)c(N)n(-c3ccccc3)c(=O)c2CO1 | – | inconclusive: 6.31 µM [rising, partial curve] |
| CCS(=O)(=O)N1CCC(C(=O)NCCCN2CCCC2)CC1 | inconclusive: 3.65% | – |
| CCOC(=O)c1cnc(C(C)(C)C)[nH]c1=O | inactive: 0.672% | – |
| Cn1c(=O)c2c(ncn2CC(=O)OCC(=O)NC2CCCc3ccccc32)n(C)c1=O (centres undefined) | inconclusive: 5.34% | – |
| CCOC(=O)C1CCN(C(c2cccc(F)c2)c2sc3nc(C)nn3c2O)CC1 (centres undefined) | – | inconclusive: 12.6 µM [rising, single point] |
| O=c1c(CCc2ccccc2)nc2cnc(Oc3ccccc3)nc2n1C[C@H]1CCCO1 | – | active: 12.6 µM |
| Nc1ccc(O)c(-c2nc3ccccc3s2)c1 | inactive: 4% | – |
| Cc1ccc(C(=O)CC(C(=O)O)n2ccc(C)n2)cc1 (centres undefined) | – | inconclusive: 2.51 µM [falling, single point] |
| O=C(Cn1c(SCC(=O)NC2CCCC2)nnc1-c1ccncc1)Nc1ccc2c(c1)OCO2 | inactive: 7.4% | – |
| C=C(C)CSc1nc(C)c(Cc2ccccc2)c(=O)[nH]1 | – | inconclusive: 6.31 µM [rising, partial curve] |
| COCCN(CCOC)c1nc(C)nc2c1nc(-c1ccccc1)n2CCCN1CCCCC1C (centres undefined) | inactive: 2.7% | – |
| Cc1csc(NC(=O)CCn2c(=O)sc3ccccc32)n1 | inactive: -20% | – |
| COC(=O)c1ccc(Oc2nc(NC(C)C)nc(SC)n2)cc1 | inconclusive: 23.1% | – |
| CCN(CC)CCNc1ccc(CO)c2sc3ccccc3c(=O)c12 | inconclusive: 29.8% [at 17.1 µM] | – |
| COc1ccc2[nH]cc(C(=O)CN3CCN(C/C=C/c4ccccc4)CC3)c2c1 | inconclusive: -10.6% | – |
| O=C(CCCc1c[nH]c2ccccc12)N1CCOCC1 | inactive: -4.84% | – |
| Cc1c(-c2ccccc2)sc(N)c1C(=O)N1CCOCC1 | inactive: 1.8% | – |
| Cc1c(NC(=O)C2CCCN2S(=O)(=O)c2ccc(Cl)cc2)c(=O)n(-c2ccccc2)n1C (centres undefined) | – | inconclusive: 3.16 µM [falling, single point] |
| Cc1ccc(C)c(/C(O)=C2\C(=O)C(=O)N(CCCN(C)C)C2c2cccnc2)c1 (centres undefined) | inactive: 1.19% | – |
| N#Cc1nc(-c2ccc(OCc3ccccc3)cc2)oc1NCCCn1ccnc1 | inactive: 3.07% | – |
| O=c1c(O)c(-c2ccc(O)c(O)c2)oc2ccccc12 | – | inconclusive: 15.8 µM [falling, partial curve] |
| CC1Cc2cc(-c3csc(NC(=O)Cc4cccs4)n3)ccc2N1S(C)(=O)=O (centres undefined) | inconclusive: 5.67% | – |
| CC1(C)CC(=O)C2=C(C1)N(CCN1CCOCC1)C1=C(C(=O)CC(C)(C)C1)C2c1cccc(Cl)c1 | – | inconclusive: 10 µM [rising, partial curve] |
